Measurements as given in publication PMC12820563.
The list shows a part of the results. The list includes weakly bound sequences.

Target: T1, MBP-FoxP3dN (UniProt Q99JB6)
T1 sequence: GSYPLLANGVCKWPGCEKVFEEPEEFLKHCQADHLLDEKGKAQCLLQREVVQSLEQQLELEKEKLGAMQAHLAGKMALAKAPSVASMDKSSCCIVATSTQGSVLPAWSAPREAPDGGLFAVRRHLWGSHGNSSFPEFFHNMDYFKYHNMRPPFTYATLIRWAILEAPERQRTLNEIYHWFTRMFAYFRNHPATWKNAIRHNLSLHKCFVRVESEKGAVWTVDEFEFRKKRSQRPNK
Test: PD-seq (MBP pull-down with sequencing)
Conditions: 20 mM Tris-HCl pH 7.5, 100 mM NaCl, 1.5 mM MgCl2, 0.4 uM protein, 0.1 uM dsDNA library, 30 min, room temperature, amylose pull-down; high values mean tight binding; double strand, one strand shown

Row | Sequence | binding signal (RPM ratio (pull-down/input))
1 | GATGATTGTTCTCCCAGCTGATGAATTGGCTAATTCGAGTAAACAAATTTTCCTAATCTTTCTGTTCAAGCGCCATCTAC | 0.321
2 | GATGATTGTTCTCCCAGCTGATGAATTGTACAGTTCGAGTAAACAAATTTTCCTAATCTTTCTGTTCAAGCGCCATCTAC | 0.453
3 | GATGATTGTTCTCCCAGCTGATGAATTTGTTAAGTCGAGTAAACAAATTTTCCTAATCTTTCTGTTCAAGCGCCATCTAC | 2.25
4 | GATGATTGTTCTCCCAGCTGATGAATTGGGTTCATCGAGTAAACAAATTTTCCTAATCTTTCTGTTCAAGCGCCATCTAC | 0.504
5 | GATGATTGTTCTCCCAGCTGATGAATTCTACCTATCGAGTAAACAAATTTTCCTAATCTTTCTGTTCAAGCGCCATCTAC | 0.384
6 | GATGATTGTTCTCCCAGCTGATGAATTCGGCGGATCGAGTAAACAAATTTTCCTAATCTTTCTGTTCAAGCGCCATCTAC | 0.282
7 | GATGATTGTTCTCCCAGCTGATGAATTATGGGTATCGAGTAAACAAATTTTCCTAATCTTTCTGTTCAAGCGCCATCTAC | 0.849
8 | GATGATTGTTCTCCCAGCTGATGAATTGCTTAAGTCGAGTAAACAAATTTTCCTAATCTTTCTGTTCAAGCGCCATCTAC | 0.396
9 | GATGATTGTTCTCCCAGCTGATGAATTATCTTATTCGAGTAAACAAATTTTCCTAATCTTTCTGTTCAAGCGCCATCTAC | 0.463
10 | GATGATTGTTCTCCCAGCTGATGAATTCCTTCCATCGAGTAAACAAATTTTCCTAATCTTTCTGTTCAAGCGCCATCTAC | 0.243
11 | GATGATTGTTCTCCCAGCTGATGAATTGGCTCACTCGAGTAAACAAATTTTCCTAATCTTTCTGTTCAAGCGCCATCTAC | 0.347
12 | GATGATTGTTCTCCCAGCTGATGAATTTTGCTCTTCGAGTAAACAAATTTTCCTAATCTTTCTGTTCAAGCGCCATCTAC | 0.48
13 | GATGATTGTTCTCCCAGCTGATGAATTAATTGTTTCGAGTAAACAAATTTTCCTAATCTTTCTGTTCAAGCGCCATCTAC | 3.75
14 | GATGATTGTTCTCCCAGCTGATGAATTAACTGCATCGAGTAAACAAATTTTCCTAATCTTTCTGTTCAAGCGCCATCTAC | 0.97
15 | GATGATTGTTCTCCCAGCTGATGAATTTGCGGCGTCGAGTAAACAAATTTTCCTAATCTTTCTGTTCAAGCGCCATCTAC | 1.05
16 | GATGATTGTTCTCCCAGCTGATGAATTAACATATTCGAGTAAACAAATTTTCCTAATCTTTCTGTTCAAGCGCCATCTAC | 0.57
17 | GATGATTGTTCTCCCAGCTGATGAATTTGCTCAGTCGAGTAAACAAATTTTCCTAATCTTTCTGTTCAAGCGCCATCTAC | 0.341
18 | GATGATTGTTCTCCCAGCTGATGAATTTACAAATTCGAGTAAACAAATTTTCCTAATCTTTCTGTTCAAGCGCCATCTAC | 0.476
19 | GATGATTGTTCTCCCAGCTGATGAATTCGGGACTTCGAGTAAACAAATTTTCCTAATCTTTCTGTTCAAGCGCCATCTAC | 0.391
20 | GATGATTGTTCTCCCAGCTGATGAATTGACATTCTCGAGTAAACAAATTTTCCTAATCTTTCTGTTCAAGCGCCATCTAC | 0.556
21 | GATGATTGTTCTCCCAGCTGATGAATTATGATCCTCGAGTAAACAAATTTTCCTAATCTTTCTGTTCAAGCGCCATCTAC | 0.648

Row | Sequence | binding signal (RPM ratio (pull-down/input))
22 | GATGATTGTTCTCCCAGCTGATGAATTCCCAGCCTCGAGTAAACAAATTTTCCTAATCTTTCTGTTCAAGCGCCATCTAC | 0.301
23 | GATGATTGTTCTCCCAGCTGATGAATTACTACGGTCGAGTAAACAAATTTTCCTAATCTTTCTGTTCAAGCGCCATCTAC | 0.315
24 | GATGATTGTTCTCCCAGCTGATGAATTAGGAGGGTCGAGTAAACAAATTTTCCTAATCTTTCTGTTCAAGCGCCATCTAC | 0.318
25 | GATGATTGTTCTCCCAGCTGATGAATTCGCAGTTTCGAGTAAACAAATTTTCCTAATCTTTCTGTTCAAGCGCCATCTAC | 0.526
26 | GATGATTGTTCTCCCAGCTGATGAATTAGGCTATTCGAGTAAACAAATTTTCCTAATCTTTCTGTTCAAGCGCCATCTAC | 1.58
27 | GATGATTGTTCTCCCAGCTGATGAATTTCAATCTTCGAGTAAACAAATTTTCCTAATCTTTCTGTTCAAGCGCCATCTAC | 0.352
28 | GATGATTGTTCTCCCAGCTGATGAATTGGGATGATCGAGTAAACAAATTTTCCTAATCTTTCTGTTCAAGCGCCATCTAC | 0.464
29 | GATGATTGTTCTCCCAGCTGATGAATTGTGGCTATCGAGTAAACAAATTTTCCTAATCTTTCTGTTCAAGCGCCATCTAC | 1.59
30 | GATGATTGTTCTCCCAGCTGATGAATTCTGCCGCTCGAGTAAACAAATTTTCCTAATCTTTCTGTTCAAGCGCCATCTAC | 2.24
31 | GATGATTGTTCTCCCAGCTGATGAATTCCATCGATCGAGTAAACAAATTTTCCTAATCTTTCTGTTCAAGCGCCATCTAC | 0.359
32 | GATGATTGTTCTCCCAGCTGATGAATTCCACATGTCGAGTAAACAAATTTTCCTAATCTTTCTGTTCAAGCGCCATCTAC | 0.45
33 | GATGATTGTTCTCCCAGCTGATGAATTTCCATATTCGAGTAAACAAATTTTCCTAATCTTTCTGTTCAAGCGCCATCTAC | 0.34
34 | GATGATTGTTCTCCCAGCTGATGAATTTCCACAATCGAGTAAACAAATTTTCCTAATCTTTCTGTTCAAGCGCCATCTAC | 0.373
35 | GATGATTGTTCTCCCAGCTGATGAATTGCAGAACTCGAGTAAACAAATTTTCCTAATCTTTCTGTTCAAGCGCCATCTAC | 0.475
36 | GATGATTGTTCTCCCAGCTGATGAATTTAACAATTCGAGTAAACAAATTTTCCTAATCTTTCTGTTCAAGCGCCATCTAC | 0.437
37 | GATGATTGTTCTCCCAGCTGATGAATTGTCGCTATCGAGTAAACAAATTTTCCTAATCTTTCTGTTCAAGCGCCATCTAC | 0.891
38 | GATGATTGTTCTCCCAGCTGATGAATTCGCGGTTTCGAGTAAACAAATTTTCCTAATCTTTCTGTTCAAGCGCCATCTAC | 0.585
39 | GATGATTGTTCTCCCAGCTGATGAATTGTACGCTTCGAGTAAACAAATTTTCCTAATCTTTCTGTTCAAGCGCCATCTAC | 0.577
40 | GATGATTGTTCTCCCAGCTGATGAATTGTCAGCCTCGAGTAAACAAATTTTCCTAATCTTTCTGTTCAAGCGCCATCTAC | 0.553
41 | GATGATTGTTCTCCCAGCTGATGAATTTCTGGGTTCGAGTAAACAAATTTTCCTAATCTTTCTGTTCAAGCGCCATCTAC | 0.245
42 | GATGATTGTTCTCCCAGCTGATGAATTGTCTGGGTCGAGTAAACAAATTTTCCTAATCTTTCTGTTCAAGCGCCATCTAC | 0.263

Row | Sequence | binding signal (RPM ratio (pull-down/input))
43 | GATGATTGTTCTCCCAGCTGATGAATTAGCCGGCTCGAGTAAACAAATTTTCCTAATCTTTCTGTTCAAGCGCCATCTAC | 0.203
44 | GATGATTGTTCTCCCAGCTGATGAATTTTGGTTCTCGAGTAAACAAATTTTCCTAATCTTTCTGTTCAAGCGCCATCTAC | 0.966
45 | GATGATTGTTCTCCCAGCTGATGAATTCTGGTACTCGAGTAAACAAATTTTCCTAATCTTTCTGTTCAAGCGCCATCTAC | 0.502
46 | GATGATTGTTCTCCCAGCTGATGAATTCGCTATATCGAGTAAACAAATTTTCCTAATCTTTCTGTTCAAGCGCCATCTAC | 0.651
47 | GATGATTGTTCTCCCAGCTGATGAATTCCGCTATTCGAGTAAACAAATTTTCCTAATCTTTCTGTTCAAGCGCCATCTAC | 2.85
48 | GATGATTGTTCTCCCAGCTGATGAATTGTAGACTTCGAGTAAACAAATTTTCCTAATCTTTCTGTTCAAGCGCCATCTAC | 0.607
49 | GATGATTGTTCTCCCAGCTGATGAATTGCTGAGTTCGAGTAAACAAATTTTCCTAATCTTTCTGTTCAAGCGCCATCTAC | 0.686
50 | GATGATTGTTCTCCCAGCTGATGAATTAAAAGCATCGAGTAAACAAATTTTCCTAATCTTTCTGTTCAAGCGCCATCTAC | 0.976
51 | GATGATTGTTCTCCCAGCTGATGAATTTGGATAGTCGAGTAAACAAATTTTCCTAATCTTTCTGTTCAAGCGCCATCTAC | 0.656
52 | GATGATTGTTCTCCCAGCTGATGAATTTCTTATGTCGAGTAAACAAATTTTCCTAATCTTTCTGTTCAAGCGCCATCTAC | 0.657
53 | GATGATTGTTCTCCCAGCTGATGAATTGTATTGGTCGAGTAAACAAATTTTCCTAATCTTTCTGTTCAAGCGCCATCTAC | 4.59
54 | GATGATTGTTCTCCCAGCTGATGAATTTTCTACGTCGAGTAAACAAATTTTCCTAATCTTTCTGTTCAAGCGCCATCTAC | 0.24
55 | GATGATTGTTCTCCCAGCTGATGAATTCTTTGAGTCGAGTAAACAAATTTTCCTAATCTTTCTGTTCAAGCGCCATCTAC | 0.254
56 | GATGATTGTTCTCCCAGCTGATGAATTACAGCGGTCGAGTAAACAAATTTTCCTAATCTTTCTGTTCAAGCGCCATCTAC | 0.378
57 | GATGATTGTTCTCCCAGCTGATGAATTCGGTACATCGAGTAAACAAATTTTCCTAATCTTTCTGTTCAAGCGCCATCTAC | 0.578
58 | GATGATTGTTCTCCCAGCTGATGAATTCCATAATTCGAGTAAACAAATTTTCCTAATCTTTCTGTTCAAGCGCCATCTAC | 0.332
59 | GATGATTGTTCTCCCAGCTGATGAATTCCTGTCCTCGAGTAAACAAATTTTCCTAATCTTTCTGTTCAAGCGCCATCTAC | 0.302
60 | GATGATTGTTCTCCCAGCTGATGAATTTACTGTCTCGAGTAAACAAATTTTCCTAATCTTTCTGTTCAAGCGCCATCTAC | 1.38
61 | GATGATTGTTCTCCCAGCTGATGAATTGCCCCTATCGAGTAAACAAATTTTCCTAATCTTTCTGTTCAAGCGCCATCTAC | 0.532
62 | GATGATTGTTCTCCCAGCTGATGAATTCGTTGGCTCGAGTAAACAAATTTTCCTAATCTTTCTGTTCAAGCGCCATCTAC | 2.07
63 | GATGATTGTTCTCCCAGCTGATGAATTCCCCCCCTCGAGTAAACAAATTTTCCTAATCTTTCTGTTCAAGCGCCATCTAC | 0.208
